Test results taken from ChEMBL document CHEMBL4888484, “Replenishing the malaria drug discovery pipeline: Screening and hit evaluation of the MMV Hit Generation Library 1 (HGL1) against asexual blood stage Plasmodium falciparum ,using a nano luciferase reporter read-out” (2022).
The whole screen tested about 150,000 compounds, of which about 540 (0.36%) showed an effect of 50% or more. Some of the results follow.

tested on: Plasmodium falciparum; experiment: Primary screen in NF54 nanoGlo assay, in single point, at 2uM, 72h; a lower Z score goes with more inhibition; assay type: functional, Erythrocyte; conditions: timepoint 72 hour

Structure (SMILES)	% Inhibition	Z score
O=C1CN(Cc2csc([C@@H]3CCCO3)n2)Cc2ccccc2N1	0%	-0.04
Cc1c(NC(=O)Cn2cnnn2)cccc1OC1CCCC1	2%	-0.32
Cc1ccc(C)c(S(=O)(=O)N2CCCN(Cc3cn4cc(Cl)ccc4n3)CC2)c1	-9%	1.38
CN(CCN(C)C1CC1)C(=O)c1ccc(C(F)(F)F)[nH]1	0%	0.04
CCc1ncnc(O[C@H]2CCN(C(=O)c3c[nH]c(=O)[nH]3)C2)c1F	-5%	0.84
CCN1CCN(C(=O)Cn2c(C)ccc(NC(=O)Nc3ccc(C)cc3)c2=O)CC1	-7%	1.19
Cc1ccc(Cn2cc(-c3noc(C(=O)Nc4ccc(F)c(F)c4)n3)nn2)cc1	-11%	2.14
CC(C)(C)c1cc(CN2CC(=O)NC[C@H]2c2ccccc2)no1	-10%	1.76
Cc1cccc(CN2CCn3c(n[nH]c3=O)C2=O)c1	-3%	0.3
COc1ccc(CN2C[C@H](C(=O)O)[C@@H](c3cccnc3)C2)c(F)c1	-17%	3.44
Cn1cc(CN2CCCCCC2CC(O)c2ccco2)cn1 (stereo not drawn)	5%	-0.43
Cc1cc(NC(=O)N(C)CCN2C[C@@H](C)O[C@@H](C)C2)ccn1	4%	-0.6
c1cncc(-c2noc(-c3cc(-c4cccs4)[nH]n3)n2)c1	7%	-0.83
CC(C)(C(=O)Nc1nnc[nH]1)C(F)F	-2%	0.24
COc1cccc(C(=O)N2CCC3(CC2)OCC(C(=O)NCC2CCCO2)N3C(=O)c2ccc(F)cc2)c1 (stereo not drawn)	-6%	0.99
O=C1CN(c2ccc(OC(F)F)nn2)CCCN1	-5%	0.68
CCC(=O)N1CC(C(=O)NCc2ccccn2)C(c2cccc(OC)c2)C1 (stereo not drawn)	-14%	1.53
COCCN(Cc1ccsc1)C(=O)Nc1cc2c(cc1C)OCCO2	4%	-0.75
O=C(CC1=CCCCC1)N(Cc1ccccn1)c1ccncc1	-8%	1.33
NC(=O)c1ccc(N[C@@H](C(=O)N2CCCC2)c2ccccc2)cc1	-8%	1.15
C[C@H]1CN(Cc2cnc(NCc3ccccc3)nc2)CC[C@]1(O)C1CC1	-3%	0.43

Structure (SMILES)	% Inhibition	Z score
O=C(c1cccc(O)c1)N1CCC(OCc2ccccc2F)CC1	34%	-4.57
COc1cc(C(=O)N(Cc2ccccc2)S(=O)(=O)c2cccs2)ccc1OC(F)F	10%	-1.29
O=C(c1ccc(C(F)(F)F)cc1)N1CCN=C1N1CCCCC1	-6%	0.56
CC(C(=O)N(C)C)S(=O)(=O)N1CCNC(=O)C1Cc1nc2ccccc2o1 (stereo not drawn)	31%	-3.5
CC(C)Oc1cccc(C(=O)[C@H]2CCCN(C3CCN(Cc4ccccn4)CC3)C2)c1	-18%	1.71
N#Cc1cccnc1N1CCC[C@H](c2cc3ccccc3[nH]2)C1	-10%	0.93
CC(CC(=O)N1CC2CCC1C(C(=O)O)C2)C(F)(F)F (stereo not drawn)	-4%	0.49
CCOCCCN1C(=O)c2c(NC(C)=O)c3cc(F)ccc3n2C[C@@]1(C)C(=O)NC1CCCC1	-8%	0.75
CS(=O)(=O)Cc1noc(CN2CCCC3(CCCCCC3)C2)n1	10%	-1.41
Cc1cc(CN(C)C[C@H]2C[C@@H](NC(=O)OC(C)(C)C)C2)no1	-2%	0.25
COc1cc([C@@H]2c3nc[nH]c3CCN2Cc2nc3ccccc3[nH]2)ccc1O	-6%	0.63
CCOC(=O)CCN(C)C(=O)[C@@H]1CCCCC(=O)N1	-20%	2.56
CC(C)CCn1c(N2CCC[C@H](C(=O)NCc3cccnc3)C2)nc2ccccc21	-1%	0.07
COc1c[nH]c(C(=O)NCc2cc(C(C)C)on2)cc1=O	2%	-0.4
CCOCCO[C@@H](C)C(=O)NCCNC(=O)Cc1ccccc1	1%	-0.09
O=C(Cc1nc(Cc2ccccc2F)n[nH]1)Nc1ccc(Cl)cc1	-11%	1.4
CC(C)(C#N)CC(=O)NC1CCC(c2ccc(F)cc2)C1 (stereo not drawn)	8%	-0.79
CNC(=O)[C@H]1C[C@H](Oc2ccccc2)CN1Cc1cccn1C	-9%	1.7
COCc1nc([C@@H]2CCCCCN2S(=O)(=O)c2ccccc2)no1	-5%	0.6
C[C@@H](CCc1ccco1)Nc1nc(-c2ccn(C)n2)no1	-16%	3.14
CN(C(=O)CC[C@H](N)c1ccccc1)c1ccc(F)cc1	-4%	0.69

Structure (SMILES)	% Inhibition	Z score
O=S1(=O)CC[C@H](CNc2ncnc3c2Cc2ccccc2OC3)C1	-3%	0.26
CCCc1noc(CN(C)C(=O)NCc2noc(-c3ccco3)n2)n1	-2%	0.36
CC[C@H](NC(=O)c1cc(Cn2ccc3ccccc32)[nH]n1)c1ncccc1C	-2%	0.44
Cc1noc(C)c1NC(=O)N[C@@H](C)C(C)C	-5%	0.96
COc1ccc(NC(=O)C(=O)NCCN2CCC(O)CC2)c(OC)c1	-11%	1.54
Cc1nc(C)c(C(=O)N2CCCO2)s1	8%	-1.3
Cc1nnc(CN2CCN(Cc3ccccc3)C(=O)C2(C)C)s1	-1%	0.17
O=C(CN1CCOC1=O)N[C@@H]1COCC[C@@H]1OCc1ccccc1	-3%	0.39
CC1(NC(=O)[C@H](CC(N)=O)NC(=O)Cc2cccc(F)c2)CCCC1	2%	-0.36
O=C(OCCN1CCCC1=O)c1cccc(Cl)c1	-2%	0.23
CCOC(=O)[C@H](Cc1ccccc1)NC	-2%	0.26
CCOC(=O)c1c(C)[nH]c(CCC(=O)NCc2ccc(F)cc2)c1C	2%	-0.46
CC(C)c1cc(C(=O)N2CCN(c3nnc(C(F)(F)F)s3)CC2)nc(N)n1	-6%	0.78
Cn1nc(N)c2c(C#N)c3c(nc21)CCCC3	-1%	0.17
COc1ccc(O)cc1CN1CCN(C(C)=O)[C@H]2CS(=O)(=O)C[C@H]21	-1%	0.2
O=C(NCc1nccnc1-c1ccco1)c1cscn1	13%	-1.7
CN1CCC(Cc2nc(C3(c4ccccc4)CCCC3)n(CCO)n2)CC1	-7%	0.82
COCC1(C)CCN(S(=O)(=O)c2cc(C(N)=O)n(C)c2)CC1	-3%	0.48
NC(=O)C[C@H](NCC(F)(F)F)C1CCOCC1	-5%	0.53
CCN(CC(N)=O)C(=O)[C@H]1CCCC(F)(F)C1	-9%	1.11
Cc1cncc(C(=O)N2CC[C@H](OCCCc3ccccc3)C2)c1	6%	-1.1

Structure (SMILES)	% Inhibition	Z score
Cc1ncc([C@H](C)NCCCc2nc3c(s2)CCCC3)c(C)n1	-8%	1.1
Cc1cncn(CCNS(=O)(=O)Cc2cc(F)ccc2F)c1=O	-3%	0.56
c1cc(-c2ccco2)cc(-c2nccn2CCc2cnccn2)c1	-22%	1.97
O=C(c1cnn2c1OCCC2)N1CCC[C@H](Oc2ncc(F)cn2)C1	1%	-0.19
CC1=NS(=O)(=O)N(C)C=C1C(=O)Nc1ccccc1C(F)(F)F	-15%	1.67
CCOc1ccc(CCn2c3c(c(=O)[nH]c2=O)C(C(F)(F)F)(C(F)(F)F)N=C(c2ccncc2)N3)cc1OCC	5%	-0.71
OCCN(CCn1cc(Cl)cn1)Cc1ccco1	-13%	2.46
O=C(c1ccc(O)cc1)N1CCN(Cc2cccnc2)[C@@H]2CS(=O)(=O)C[C@@H]21	-14%	2.74
Cc1ccc(CN(C)C(=O)c2ccc(S(=O)(=O)N3CCOCC3)cc2)o1	-6%	0.61
O=C([C@@H](O)Cc1ccccc1)N1CCCC(Cn2cncn2)C1 (stereo partly drawn)	-6%	0.62
O=C(NCc1ccccc1CN1CCOCC1)Nc1nccs1	-6%	1.01
Cc1ccc(Oc2nc(N3CCC(C)CC3)nc3c2CN(C(=O)Nc2ccccc2)CC3)cc1	-9%	1.45
Cc1n[nH]c(C)c1CNc1ccc(N(C)C(=O)OC(C)(C)C)nc1	4%	-0.35
Cc1n[nH]cc1CN(C)C(=O)c1cncc(O)c1	-1%	0.13
Cc1nc2cc(NC(=O)c3ccc(=O)n(C)n3)ccc2o1	-13%	1.65
O=c1nc(NCCc2ccc(O)cc2)cn[nH]1	-5%	0.67
C[C@H]1CN(c2nnc(-c3nnc[nH]3)n2C)CCN1C(=O)OC(C)(C)C	0%	0.04
CCCN1CC2(CCN(c3nccnc3N(C)C)CC2)C[C@H]1C(=O)O	2%	-0.32
CCOc1ccccc1-c1nc(-c2cc(C)n(-c3c(C)n(C)n(-c4ccccc4)c3=O)c2C)cs1	-2%	0.43
Cc1cccc(N[C@H](c2ccccn2)c2c(C)[nH]c3ccc(NC(=O)c4ccc(F)cc4)cc23)n1	0%	-0.06
c1cn([C@@H]2COC[C@@H]2NCc2ccc3cn[nH]c3c2)nn1	-14%	2.05
